In PubChem BioAssay (Tox21):
The inconclusive results got no clear call from the source; some entries with a clear call stand among them for comparison. Potencies beside an inconclusive call are fits to weak or partial responses and may not hold up. The source made the active and inactive calls. The call rests on the fitted dose curve; in most records, active means well fitted activation curve with a large enough effect in the signal ratio in the repeat runs (not every such curve was filed as active); inconclusive means weak or mixed curves; inactive means flat fitted curve, though single readings scatter; the % refers to the signal ratio.

test: qHTS assay to identify small molecule agonists of the hypoxia (HIF-1) signaling pathway (AID 1224846); conditions: HRE-bla ME-180 cells, beta-lactamase ratio, 17 h; activation: at 76.8 µM (top of the series) unless noted
Outline: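 A low-serum medium (0.5% dialyzed FBS) holding 2,000 HRE-bla ME-180 cells per well is preincubated for 5 hrs, dosed with compounds by pintool, and kept a further 17 hrs at 37C, 5% CO2 before CCF4-AM FRET detection of beta-lactamase.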
On the % scale 0 is the no-effect control and ±100 the full control effect; potency means the concentration at half of the fitted maximal effect; tags describe the fitted curve by direction and shape or compound fluorescence and quenching.

Row | SMILES | activation | Potency
1 | FC(F)(F)C(Cl)(Cl)Cl | inactive: -0.519% | –
2 | CC(C)C(=O)C(C)C | inactive: 0.0516% | –
3 | O=C1CCCC(=O)O1 | inactive: -0.756% | –
4 | O=C(OC1C[C@H]2CC[C@@H](C1)[N+]21CCCC1)C(O)(c1ccccc1)c1ccccc1 (stereo partly specified) | inconclusive: -0.598% [at 35.5 µM] | –
5 | C=COCCCC | inactive: 0.784% | –
6 | Cc1ccccc1S(=O)(=O)O | inactive: -1.71% | –
7 | CCC/C=C/CO | inactive: -1.36% | –
8 | CCC(C)C1CCCCC1=O (stereo unspecified) | inactive: 0.957% | –
9 | CSc1ccc(C=O)cc1 | – | inconclusive: 0.548 µM [falling, single point]
10 | C=CC[N+](C)(C)CC=C | – | inactive
11 | CCOC(=O)c1ccc(C)cc1 | inactive: 0.0454% | –
12 | CCOC(=O)c1ccccc1 | inactive: -0.736% | –
13 | C[C@]12C(=O)OC(=O)[C@H]1[C@H]1C=C[C@@H]2C1 | inactive: -1.48% | –
14 | CCCCCCCCCCCCCCCC(=O)O | – | inactive
15 | C/C=C1/CC2C=CC1C2 (stereo unspecified) | – | inactive
16 | O=C(O)CCc1nc2ccccc2[nH]1 | inactive: 2.03% [at 35.5 µM] | –
17 | CC(C)=CCCC(C)C=O (stereo unspecified) | inactive: -1.02% | –
18 | CC(C)=CC1CC(C)CCO1 (stereo unspecified) | inactive: -0.365% | –
19 | FC(F)(F)c1ccc(Cl)c(Cl)c1 | – | inconclusive: 60.3 µM [rising, partial curve, poor fit]
20 | COc1cc2c(cc1OC)C(=O)CC2 | inactive: -1.18% [at 35.5 µM] | –
21 | CCCCCCCCCOC(C)=O | inactive: 0.335% | –
22 | CC(=O)CC(=O)Nc1ccc(C)cc1C | inactive: -0.748% | –
23 | CC(CCO)CC(C)(C)C (stereo unspecified) | – | inactive
24 | CCS(=O)(=O)c1ccc(OC)c(C(=O)OC)c1 | inactive: 1.24% [at 35.5 µM] | –
25 | Cc1cn([C@@H]2O[C@H](CO)[C@@H](O)[C@@H]2F)c(=O)[nH]c1=O | inactive: -0.957% [at 35.5 µM] | –
26 | COc1cc2ncnc(Nc3cccc(Cl)c3)c2cc1OC | inactive: 0.103% [at 15.8 µM] | –
